The values below come from IntAct's records for PubMed 27332895.

The chains are these.
B1: Inner centromere protein (Homo sapiens), Q9NQS7 (parent)
chain: MGTTAPGPIHLLELCDQKLMEFLCNMDNKDLVWLEEIQEEAERMFTREFSKEPELMPKTPSQKNRRKKRRISYVQDENRDPIRRRLSRRKSRSSQLSSRRLRSKDSVEKLATVVGENGSVLRRVTRAAAAAAAATMALAAPSSPTPESPTMLTKKPEDNHTQCQLVPVVEIGISERQNAEQHVTQLMSTEPLPRTLSPTPASATAPTSQGIPTSDEESTPKKSKARILESITVSSLMATPQDPKGQGVGTGRSASKLRIAQVSPGPRDSPAFPDSPWRERVLAPILPDNFSTPTGSRTDSQSVRHSPIAPSSPSPQVLAQKYSLVAKQESVVRRASRRLAKKTAEEPAASGRIICHSYLERLLNVEVPQKVGSEQKEPPEEAEPVAAAEPEVPENNGNNSWPHNDTEIANSTPNPKPAASSPETPSAGQQEAKTDQADGPREPPQSARRKRSYKQAVSELDEEQHLEDEELQPPRSKTPSSPCPASKVVRPLRTFLHTVQRNQMLMTPTSAPRSVMKSFIKRNTPLRMDPKCSFVEKERQRLENLRRKEEAEQLRRQKVEEDKRRRLEEVKLKREERLRKVLQARERVEQMKEEKKKQIEQKFAQIDEKTEKAKEERLAEEKAKKKAAAKKMEEVEARRKQEEEARRLRWLQQEEEERRHQELLQKKKEEEQERLRKAAEAKRLAEQREQERREQERREQERREQERREQERREQERQLAEQERRREQERLQAERELQEREKALRLQKEQLQRELEEKKKKEEQQRLAERQLQEEQEKKAKEAAGASKALNVTVDVQSPACTSYQMTPQGHRAPPKINPDNYGMDLNSDDSTDDEAHPRKPIPTWARGTPLSQAIIHQYYHPPNLLELFGTILPLDLEDIFKKSKPRYHKRTSSAVWNSPPLQGARVPSSLAYSLKKH
partner: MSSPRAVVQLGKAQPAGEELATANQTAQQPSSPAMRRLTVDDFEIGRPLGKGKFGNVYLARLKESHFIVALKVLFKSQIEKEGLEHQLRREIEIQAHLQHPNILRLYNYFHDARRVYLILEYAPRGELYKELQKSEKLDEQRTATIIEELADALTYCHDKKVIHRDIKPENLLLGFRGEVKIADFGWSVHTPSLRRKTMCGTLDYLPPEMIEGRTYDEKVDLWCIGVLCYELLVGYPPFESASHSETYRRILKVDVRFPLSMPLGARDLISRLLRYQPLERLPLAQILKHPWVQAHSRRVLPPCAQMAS
B2: Inner centromere protein (Homo sapiens), Q9NQS7 (parent)
chain: B1 chain

Variants of B1 are the subject of assay [1]. The conditions noted are these: with aurkc_human AURKC.
Variants of B1 are the subject of assay [2]. The conditions noted are these: with aurkc_human AURKC. This is another data set of the same source.
In assay [3] the parent is B1. The conditions noted are these: with aurkc_human AURKC. The source holds these as a separate data set.
Variants of B1 are the subject of assay [4]. The conditions noted are these: with aurkc_human AURKC. This is another data set of the same source.
Assay [5] covers variants of B2. To be noted: with aurkb_human AURKB.

In the case of T892A;S893A;S894A, the “effect of a mutation on the interaction” value in assay [1] is reported as “disrupting interaction”; in assay [2], “decreasing interaction”; in assay [3] it was “with no effect”; in assay [4], “decreasing interaction strength”.
As for T892A;S893A;S894A, in assay [5], the “effect of a mutation on the interaction” value is listed as “decreasing interaction strength”.
